In all, about 48,000 compounds went through this assay and about 1,200 (2.5%) were called active. Not shown: some 2% with an inconclusive outcome.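 How the source made its calls: active means activation of at least 60% and not above a set upper limit (about 1 call in 100 departs from these limits); inconclusive means activation of 40% to 60%, or above that upper limit; inactive means activation under 40%.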 Some of the results follow.
Target: Probable G-protein coupled receptor 32 (Homo sapiens) (UniProt O75388)
Experiment: qHTS for Agonists of Human Resolvin D1 Receptor DRV1; further: 0% is about no effect
Conditions: CHO-K1 GPR32 beta-arrestin PathHunter luminescence, 90 min; at 76.9 µM; hits give high values; zero percent set by DMSO-only wells
Method in brief: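 PathHunter enzyme-fragment complementation, CHO-K1 GPR32 stable line; 2,500 cells/well, overnight attach; cpd 90 min 37 °C 5% CO2; detection reagent 1 h RT; chemiluminescence. DMSO = EC0.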

Sequence of UniProt O75388 (O75388 whole entry, looked up): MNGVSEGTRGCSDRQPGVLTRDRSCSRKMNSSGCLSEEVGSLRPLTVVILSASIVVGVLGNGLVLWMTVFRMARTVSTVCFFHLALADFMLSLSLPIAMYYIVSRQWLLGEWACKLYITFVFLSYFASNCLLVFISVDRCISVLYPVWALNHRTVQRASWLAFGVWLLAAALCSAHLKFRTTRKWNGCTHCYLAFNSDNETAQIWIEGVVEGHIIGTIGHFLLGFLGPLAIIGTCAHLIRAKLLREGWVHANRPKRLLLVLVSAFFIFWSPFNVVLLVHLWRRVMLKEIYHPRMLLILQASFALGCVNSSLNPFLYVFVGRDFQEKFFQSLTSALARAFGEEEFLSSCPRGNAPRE

| Compound | activation |
| --- | --- |
| COc1cc2[nH]c(=O)n(CCCCCC(=O)N3CCN(c4cccc(C(F)(F)F)c4)CC3)c(=O)c2cc1OC | active: 63.1% |
| COc1cccc(Oc2nc3c(c(=O)n(Cc4ccccc4F)c(=O)n3C)n2C)c1 | inactive: -6.63% |
| Cc1nnc(C(=O)NC(C)(C)c2nc(C(=O)NCc3ccc(F)cc3)c(O)c(=O)n2C)o1 | inactive: -22.1% |
| CC(C)c1ccc(NC(=O)CN(C)S(=O)(=O)c2ccc3c(c2)c(=O)n(C)c(=O)n3C)cc1 | inactive: -12.9% |
| CCn1c(=O)n(CC)c2cc(N3CCCCC3)c(NC(=O)Nc3ccccc3Cl)cc21 | inactive: -23.9% |
| Cc1cccc(NS(=O)(=O)c2ccc3oc(=O)c4ncn(C)c4c3c2)c1C | inactive: -16% |
| COc1cccc(N2CCN(C(=O)c3c(C)oc4ncnc(N5CCOCC5)c34)CC2)c1 | inactive: -9.72% |
| Cc1c(C(=O)N(C)C)sc2c1c(=O)n(-c1ccc(Cl)c(Cl)c1)c(=O)n2CC(=O)Nc1cccc(C(F)(F)F)c1 | inactive: -5.49% |
| CCOC(=O)Cc1ccc(NC(=O)NCc2ccc3c(c2)CCN3C(=O)CC)cc1 | inactive: 21.8% |
| O=C(CCS(=O)(=O)c1cc(Br)cc2c1N(C(=O)C1CC1)CC2)Nc1ccc(Br)cc1F | inactive: 5.24% |
| CCc1ccccc1N(C)C(=O)Cn1cnc2sc(C)c(S(=O)(=O)N3CCN(c4ncccn4)CC3)c2c1=O | inactive: -8.44% |
| COc1ccc(NC(=O)Cn2c(=O)oc3cc(S(=O)(=O)N4CCC(C)CC4)ccc32)c(OC)c1 | inactive: 20.5% |
| CCOc1ccccc1CNC(=O)CCn1ccc2cc(S(=O)(=O)N3CCC(C)CC3)ccc21 | inactive: -26.7% |
| COC(=O)c1ccc(Cn2nnc3sc4c(c3c2=O)CCC(C)C4)cc1 (centres undefined) | inactive: 13.3% |
| Cc1ccc(NS(=O)(=O)c2cc(Br)cc3c2N(C(=O)C2CC2)CC3)cc1C | inactive: 31.3% |
| CCCS(=O)(=O)c1c(Nc2ccccc2C)sc(C(=O)c2ccccc2)c1N | inactive: -50.5% |
| O=C(NC1CCCc2ccccc21)c1ccc2c(c1)sc1nc(-c3ccc(F)cc3)cn12 (centres undefined) | inactive: -7.96% |
| CCOc1ccc(CCNC(=O)c2cc3c(=O)[nH]c4ccc(C)cc4c3s2)cc1OCC | inactive: 4.94% |
| COc1ccc(-c2nc(SCC(=O)NCCc3ccc(OC)c(OC)c3)n[nH]2)cc1 | inactive: -18% |
| COc1ccc2c(CNCCc3cccs3)c(C(=O)O)n(Cc3ccccc3)c2c1 | inactive: 47.4% |
| O=C(CCCN1C(=O)C(c2ccccc2)Oc2cccnc21)Nc1ccc(Br)cc1F (centres undefined) | inactive: -3.41% |

| Compound | activation |
| --- | --- |
| CCc1ccc2c(c1)NC(c1cccs1)=NC(c1ccc(F)cc1)=N2 | inactive: -4.14% |
| O=Cc1ccc(O)c(O)c1O | inactive: -6.64% |
| CC(=O)N(Cc1cccnc1)c1nc2c(C)c(C)ccc2s1 | inactive: -16.3% |
| Cc1ccc(Cl)cc1NC(=O)C1CCC(CNS(=O)(=O)c2cccc3nsnc23)CC1 (centres undefined) | inactive: -10.3% |
| Cc1ccc(N2CC(c3nc4ccccc4n3CCC3CCCCC3)CC2=O)cc1 (centres undefined) | inactive: -4.83% |
| CCOc1ccc(C(CC(=O)O)N2Cc3ccccc3C2=O)cc1OC (centres undefined) | inactive: -1.27% |
| COc1ccc(C2c3c(oc4ccc(F)cc4c3=O)C(=O)N2Cc2ccc3c(c2)OCO3)cc1 (centres undefined) | inactive: -3.96% |
| COC(=O)c1ccccc1NC(=O)NCCc1c(C)nn(C)c1C | inactive: 5.57% |
| CCc1ccc(CNCc2c(C(=O)O)n(Cc3cccc(F)c3)c3cc(OC)ccc23)cc1 | active: 109% |
| Cc1cccc(N(C)C(=O)c2cc(S(=O)(=O)N3CCCC3)cn2C)c1 | inactive: -20.4% |
| N#C/C(=C\c1ccccc1)c1nc(-c2cc3cc(Br)ccc3oc2=O)cs1 | inactive: 24.7% |
| O=C(NCCS(=O)(=O)N1CCN(c2ccccc2)CC1)C(c1ccccc1)c1ccccc1 | inactive: -22.5% |
| O=C1CC(c2ccccc2)Cc2[nH]c(=O)c(C(=O)Nc3cccc(F)c3)cc21 (centres undefined) | inactive: 5.29% |
| Cc1cccc(NC(=O)c2c(NC(=O)C(F)(F)F)sc3c2CCCCC3)c1 | inactive: 44.5% |
| CCOC(=O)c1cccc(Nc2c3c(nc4ccccc24)CCC3)c1 | active: 77.8% |
| O=C(Nc1ccccc1Br)C1CCCN(S(=O)(=O)c2cccc3nsnc23)C1 (centres undefined) | inactive: 28.7% |
| COc1cccc(N2CCN(S(=O)(=O)c3ccc4[nH]c5c(c4c3)CCCC5)CC2)c1 | inactive: 1.1% |
| CCc1ccc(OCC(=O)N(Cc2ccc(Cl)cc2)C2CCS(=O)(=O)C2)cc1 (centres undefined) | inactive: -4.73% |
| O=C(CSc1nc2c([nH]c3ccccc32)c(=O)n1-c1ccc(F)cc1)N1CCCCC1 | inactive: -10.6% |
| CCOC(=O)c1oc2c(c1C)-c1nn(Cc3ccc(Cl)cc3)cc1CC2 | inactive: -41.2% |
| Cn1c(NCCO)nc2c1c(=O)n(Cc1ccccc1Cl)c(=O)n2C | inactive: -3.82% |

| Compound | activation |
| --- | --- |
| CCC(C)NC(=O)Cn1c(=O)cc(-c2ccccc2)c2c(C)nn(C)c21 (centres undefined) | inactive: 10.3% |
| CN1C2CCC1CC(OC(=O)c1c[nH]c3ccccc13)C2 (centres undefined) | inactive: -6.21% |
| COc1ccccc1NC(=O)Cn1nnc(C(=O)NCc2ccc3c(c2)OCO3)c1N | inactive: 42.4% |
| Cc1cccc(NC(=O)CCS(=O)(=O)c2ccc3c(c2)n(C)c(=O)c(=O)n3C)c1C | inactive: 16% |
| CCOC(=O)c1noc2ncn(CC(=O)Nc3ccc(C)c(F)c3)c(=O)c12 | active: 76% |
| Nc1nc(Nc2ccccc2F)sc1C(=O)c1ccc(Cl)cc1 | inactive: -28.9% |
| CCc1cccc(NC(=O)C2CCN(C(=O)c3cnn(-c4ccccc4)c3-n3cccc3)CC2)c1 | inactive: -3.99% |
| CCOC(=O)C1CCCN(C(=O)c2nn(-c3ccc(OC)cc3)c(=O)c3c2c2ccccc2n3C)C1 (centres undefined) | inactive: -21.1% |
| CCc1ccc(-n2nc(C)c3c(C)cc(=O)n(CC(=O)N4CCCc5ccccc54)c32)cc1 | inactive: 4.54% |
| O=c1cc(-c2ccccc2)n2c(SCc3ccccc3)nnc2[nH]1 | inactive: 2.15% |
| Cc1cc2c(cc1CC(=O)c1sccc1S(=O)(=O)Nc1onc(C)c1Cl)OCO2 | inactive: 23% |
| Cc1ccc(-n2c(=O)c3c(C)c(C(=O)N(C)C)sc3n(CC(=O)C(C)(C)C)c2=O)cc1C | inactive: -7.54% |
| Cc1c(C(=O)N(Cc2ccccc2F)C2CCS(=O)(=O)C2)oc2ccc(F)cc12 (centres undefined) | inactive: -8.91% |
| Cn1c(=O)c2c(nc(NCc3ccccc3)n2Cc2ccccc2)n(C)c1=O | inactive: 16.6% |
| Cn1c(=O)c2c(SCC(=O)NCc3ccco3)nc(-c3ccccc3)nc2n(C)c1=O | inactive: -2.08% |
| CCOC(=O)c1cnc2ccc(OC)cc2c1NCCc1ccccc1 | inactive: -5.01% |
| COc1ccc(N2CC(NC(=O)COc3ccccc3)CC2=O)cc1OC (centres undefined) | inactive: 16.2% |
| Cc1cccc(CNC(=O)Cn2nc(C)n3c(cc4cc(F)ccc43)c2=O)c1 | inactive: -12% |
| CCc1ccc(-n2nc3cc(C)c(NC(=O)c4cccc5ccccc45)cc3n2)cc1 | inactive: 8.31% |
| O=C(O)Cc1ccc(-c2ccccc2)cc1 | inactive: 30% |
| CN(c1ncnc2onc(-c3cccc(Cl)c3)c12)C1CCCCC1 | inactive: 5.93% |

| Compound | activation |
| --- | --- |
| Cc1ccc(-n2nc(CO)c(C(=O)NCc3ccccn3)n2)cc1C | inactive: -7.92% |
| CC1CCn2c(nc3cc(C(=O)NCCc4ccc(Cl)cc4)ccc32)C1 (centres undefined) | inactive: -7.24% |
| COc1cccc(CNC(=O)C(=O)Nc2c3c(nn2-c2ccccc2)CSC3)c1 | inactive: -23.4% |
| CCN(C(=O)C1CCN(S(=O)(=O)c2ccc3c(c2)CCCN3C(C)=O)CC1)c1cccc(C)c1 | inactive: -6.8% |
| COc1ccccc1OCC(=O)NCC(c1ccc(Cl)cc1)N1CCCCC1 (centres undefined) | inactive: -18.9% |
| CC(=O)c1cccc(NC(=O)c2sc(-n3nc(C)c(Cc4ccc5c(c4)OCO5)c3C)nc2C)c1 | inactive: -8.84% |
| CCOc1ccc(-c2cccc(NS(=O)(=O)c3c(C)cc(C)cc3C)c2)nn1 | inactive: -6.31% |
| COc1ccccc1CCNC(=O)C(=O)NCC(c1ccc2c(c1)OCO2)N1CCOCC1 (centres undefined) | inactive: -2.68% |
| Cc1ccc2oc3c(c(=O)c2c1)C(c1ccc(F)cc1)N(Cc1ccc2c(c1)OCO2)C3=O (centres undefined) | inactive: 7.5% |
| CCOC(=O)c1c(NC(C)=O)c2c3c(sc2n1Cc1nc(-c2cccc(Cl)c2)oc1C)CCCC3 | inactive: -12.1% |
| Cc1c(Cl)cccc1NC(=O)Cn1c(CCC(=O)O)ccc1-c1cccs1 | inactive: -11.1% |
| CC(C)(C)OC(=O)N1CCC(c2c(C(=O)N3CCCCC3)cnn2-c2ccc(Cl)cc2)CC1 | inactive: -10% |
| CCN(CC)C(=O)CSc1nc(-c2ccccc2F)nc2c1Cc1c(CO)cnc(C)c1O2 | inactive: -2.51% |
| Cc1c(-c2ccc(Br)cc2)c(=O)oc2ccc(OC(=O)N3CCOCC3)cc12 | inactive: 8.87% |
| COc1ccc(OC)c(-c2nnc3n(Cc4ccc(C)cc4)c(=O)c4ccccc4n23)c1 | inactive: -30.7% |
| CCOc1cc(C(=O)NCCc2csc3nc(-c4ccc(C)cc4)nn23)cc(OCC)c1OCC | inactive: -6.78% |
| COC(=O)c1ccccc1NC(=O)CSc1nc2ccsc2c(=O)n1CCC(C)C | inactive: -11.7% |
| C=Cc1ccc(Cn2c(C)c(CNCc3cccc(Br)c3)c(C(=O)O)c2C)cc1 | inactive: -1.51% |
| COc1ccc(Cc2nc3ccccc3[nH]c2=O)cc1 | inactive: -2.38% |
| Cc1c(Cl)cccc1-c1ccc(C(=O)Nc2ccc(F)cc2)o1 | active: 60.8% |
| Cc1cccc(Cn2c(CNS(=O)(=O)c3ccc4c(c3)CCCC4)nc3cccnc32)c1 | inactive: -23.1% |

— PubChem BioAssay AID1346428 (National Center for Advancing Translational Sciences (NCATS), 2018)
